From PubChem BioAssay AID1347428 (National Center for Advancing Translational Sciences (NCATS), 2020)
About 290 (0.32%) of roughly 91,000 compounds were called active. This list was built around the results that the source calls inconclusive (neither active nor inactive); the mix of calls is not that of the screen. Calls follow the shape of the dose curve; as a rule, active = well fitted inhibition curve with a large enough effect; inconclusive = small, poorly fitted or top-dose-only effect; inactive = no such curve, though single readings can be large or run the other way. Potencies beside an inconclusive call are fits to weak or partial responses and may not hold up.

These molecules were tested against Single-stranded DNA cytosine deaminase (Homo sapiens) (UniProt Q9GZX7) (assay: Primary qHTS assay for inhibitors of Activation Induced Cytidine Deaminase (AID): AID signal). Conditions: AID deamination FRET fluorescence, UDG-coupled, 4 h; series mostly up to 115 µM.
Also: nearly all actives have a fitted effect of over 25% in size.
Potency is read from the fitted curve at half-maximal effect; tags tell the direction and shape of the fitted curve.

UniProt Q9GZX7, sequence (Q9GZX7 whole entry, looked up): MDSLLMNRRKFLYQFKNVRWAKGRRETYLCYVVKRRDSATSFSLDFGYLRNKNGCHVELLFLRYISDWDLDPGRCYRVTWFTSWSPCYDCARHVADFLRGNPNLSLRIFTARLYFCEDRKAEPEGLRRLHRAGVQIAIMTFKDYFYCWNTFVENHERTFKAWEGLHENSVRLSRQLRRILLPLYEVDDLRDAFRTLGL

Compound | Potency
CC1=C(C(N)=O)C(c2cccc(O)c2)n2ncnc2N1 (stereo not drawn) | inactive
O=S(=O)(Nc1cccc(C(F)(F)F)c1)c1ccc(NS(=O)(=O)c2ccc3c(c2)OCCO3)cc1 | inactive
COc1ccc(C(=O)Nc2cccc(-c3cn4ccsc4n3)c2)c(OC)c1 | inconclusive: 31.6 µM [inhibitor, full curve]
O=C(COc1ccc(Cl)cc1)N(Cc1ccco1)Cc1ccco1 | inconclusive: 56.2 µM [inhibitor, partial curve, poor fit]
CC(C)Oc1ccc(CN2CCc3nc(Nc4ccc5c(c4)OCCO5)ncc3C2)cc1 | inconclusive: 15.8 µM [inhibitor, full curve, poor fit]
CC(NC(=O)CN1C(=O)COc2ccc(S(=O)(=O)N3CCCCCC3)cc21)c1ccccc1 (stereo not drawn) | inactive
O=C(Nc1ccccc1C(=O)N1CCC(Cc2ccccc2)CC1)c1ccco1 | inactive
COc1ccc(-c2cc(-c3ccccc3)nc(SCC(=O)Nc3ccccc3C)c2C#N)cc1 | inactive
Cc1cccc(-c2nc(CCNC(=O)COc3ccccc3)cs2)c1 | inconclusive: 50.1 µM [inhibitor, partial curve, poor fit]
Cc1ccc(CN(Cc2ccco2)C(=O)c2ccc(Cl)cc2Cl)cc1 | inconclusive: 56.2 µM [inhibitor, partial curve, poor fit]
COc1ccc(S(=O)(=O)c2c(Nc3c(C)cccc3C)sc(C(=O)c3ccc(F)cc3)c2N)cc1 | inconclusive: 89.1 µM [inhibitor, single point]
Fc1ccc(Nc2nc(SCc3ccccc3Cl)nc3ccccc23)cc1 | inconclusive: 39.8 µM [inhibitor, single point]
CC(C)Cn1c2c(c(=O)[nH]c1=O)C(c1ccc(F)cc1)C1=C(COC1=O)N2 (stereo not drawn) | inactive
Cc1cccc(N2CCN(C(c3ccccc3)c3nnc(-c4ccccc4F)o3)CC2)c1C (stereo not drawn) | inconclusive: 56.2 µM [inhibitor, partial curve, poor fit]
CCc1nc2ccccc2n2c(-c3ccc(C)cc3)c3c(=O)n(C)c(=O)n(C)c3c12 | inconclusive: 17.8 µM [inhibitor, single point]
COc1ccc(CCC(=O)NCc2ccc3c(c2)CCN3C(=O)c2ccc(Cl)cc2)cc1 | inconclusive: 17.8 µM [inhibitor, partial curve, poor fit]
COC(=O)c1ccc(Cl)cc1NC(=O)Nc1nnc(N(C)C2CCCCC2)s1 | inconclusive: 89.1 µM [inhibitor, partial curve, poor fit]
CCc1ccccc1S(=O)(=O)Cc1ccc(C(=O)NCc2ccc(Cl)cc2)o1 | inconclusive: 35.5 µM [inhibitor, full curve]
Cc1ccc(CSC2=Nc3ccccc3C3=NC(CCC(=O)NC4CCCCC4)C(=O)N23)cc1 (stereo not drawn) | inconclusive: 20 µM [inhibitor, full curve, poor fit]
CCc1ccc(C(=O)CC2(O)C(=O)N(CCc3ccccc3)c3ccc(Br)cc32)cc1 (stereo not drawn) | inconclusive: 20 µM [inhibitor, single point]

Compound | Potency
CCC1=Nc2cc(C(=O)NCCc3ccc(OC)c(OC)c3)ccc2Sc2ccccc21 | inconclusive: 44.7 µM [inhibitor, full curve, poor fit]
CCCSCCCNC(=O)C1CCN(C(=O)c2cnn(-c3ccccc3)c2-n2cccc2)CC1 | inconclusive: 100 µM [inhibitor, single point]
Cc1ccccc1NC(=O)c1cc2c(-c3ccccc3)nn(-c3ccccc3)c2s1 | inconclusive: 20 µM [inhibitor, single point]
Cc1ccc(OCCn2cc(C(=O)c3cccs3)c3ccccc32)cc1 | inconclusive: 7.08 µM [inhibitor, full curve, poor fit]
CNC(=O)N/C=C(/C#N)C(=O)OC | inactive
N#Cc1c2n(c(=O)n(CCOc3ccccc3F)c1=O)CCC2 | inactive
Cc1cc(=O)oc2cc(OCC(=O)Nc3ccc(S(=O)(=O)N(C)C)cc3)ccc12 | inconclusive: 50.1 µM [inhibitor, partial curve]
C#CC(C)(CC)NC(=O)Cn1nnc(-c2ccc(OCc3ccccc3C)cc2)n1 (stereo not drawn) | inactive
COc1ccccc1N1CCN(C(=O)c2cnn(-c3cccc(Cl)c3)c2C2CCN(C(=O)OC(C)(C)C)CC2)CC1 | inconclusive: 56.2 µM [inhibitor, partial curve, poor fit]
CC(=O)Nc1ccc(N2C(=O)C(=O)/C(=C(/O)c3ccc(Cl)cc3)C2c2ccc(Cl)cc2)cc1 (stereo not drawn) | inconclusive: 79.4 µM [inhibitor, partial curve]
Cc1nc2scc(C)n2c(=O)c1S(=O)(=O)Nc1ccc(N2CCN(S(C)(=O)=O)CC2)cc1 | inactive
CC(=O)N1CCc2c(sc3nc(SCC(C)C)n(-c4ccc(C)c(Cl)c4)c(=O)c23)C1 | active: 25.1 µM
Cc1ccc(-c2nnc(Nc3ccc(OC(F)(F)Cl)cc3)c3ccccc23)cc1S(=O)(=O)NC(C)(C)CO | inconclusive: 79.4 µM [inhibitor, single point]
Cc1cc(=O)n(C(C)C(=O)N2CCCc3ccccc32)c2c1c(C)nn2-c1ccccc1 (stereo not drawn) | inconclusive: 25.1 µM [inhibitor, full curve, poor fit]
COc1ccc(-c2cc(C(=O)Oc3ccc(C)cc3)c3cc(C)ccc3n2)cc1 | inconclusive: 17.8 µM [inhibitor, single point]
Cc1c(C(=O)N2CCCC2)oc2c1-c1nn(CC(=O)NCc3ccccc3Br)cc1CC2 | inconclusive: 63.1 µM [inhibitor, partial curve, poor fit]
CC1Cn2c(C(=O)NCCc3ccc(Cl)cc3)cc3cccc(c32)S1 (stereo not drawn) | inconclusive: 39.8 µM [inhibitor, full curve]
Cc1cccc(N2CCN(C(=O)C3CCN(C(=O)c4cc5sccc5n4C)CC3)CC2)c1C | inconclusive: 50.1 µM [inhibitor, partial curve, poor fit]
CCOC(=O)c1c(C)oc2nc(C)nc(N3CCN(c4ccccc4F)CC3)c12 | inconclusive: 50.1 µM [inhibitor, partial curve, poor fit]
Cc1[nH]n2c(=O)cc(-c3ccc(Cl)cc3)nc2c1-c1ccccc1 | inconclusive: 79.4 µM [inhibitor, partial curve, poor fit]

Compound | Potency
Cc1cccc(-c2c3c(=O)n(C)c(=O)n(C)c3c3c(C)nc4ccccc4n23)c1 | inconclusive: 25.1 µM [inhibitor, single point]
Cc1ccc(C(=O)N2CCc3cc(CNC(=O)CSc4ccccc4)ccc32)cc1 | inconclusive: 14.1 µM [inhibitor, partial curve, poor fit]
CCN(c1cccc(C)c1)S(=O)(=O)c1ccc(-n2cccn2)cc1 | inconclusive: 44.7 µM [inhibitor, partial curve, poor fit]
O=C(NCCc1csc(-c2ccc(C(F)(F)F)cc2)n1)c1ccc(F)c(F)c1 | inconclusive: 11.2 µM [inhibitor, full curve, poor fit]
Cc1[nH]n(-c2ccccc2)c(=O)c1C(c1cc(Cl)ccc1O)c1c(C)[nH]n(-c2ccccc2)c1=O | inconclusive: 79.4 µM [inhibitor, partial curve, poor fit]
CC1CCN(C(=O)Cn2c(=O)n(CCCCCC(=O)NCc3ccccc3Cl)c(=O)c3sccc32)CC1 | inconclusive: 14.1 µM [inhibitor, full curve, poor fit]
CCN(CC)S(=O)(=O)c1ccc2c(c1)N(CC(=O)N1CCN(c3cccc(Cl)c3)CC1)C(=O)CO2 | inconclusive: 15.8 µM [inhibitor, full curve, poor fit]
COc1ccc(-n2c(Cc3ccccc3)nnc2SCc2nc(-c3cccs3)no2)cc1 | inconclusive: 22.4 µM [inhibitor, full curve, poor fit]
CCc1ccc(NS(=O)(=O)c2ccc3oc(=O)c4ncn(CC)c4c3c2)cc1 | inconclusive: 39.8 µM [inhibitor, full curve, poor fit]
COc1cccc(C(=O)/C(=C/c2ccco2)c2nc3ccccc3o2)c1 | inactive
CCn1c(SCc2ccccc2C)nc(=O)c2c(C(=O)OC)cc(C3CC3)nc21 | inconclusive: 56.2 µM [inhibitor, partial curve, poor fit]
COc1ccc(NC(=O)CCS(=O)(=O)c2nc(-c3cccs3)cc(C(F)(F)F)n2)cc1 | inactive
CCN(CCCNC(=O)c1cc2c(=O)n(CC)c3ccccc3c2s1)Cc1ccccc1 | inconclusive: 50.1 µM [inhibitor, partial curve, poor fit]
O=C(CN1CCCC1c1ccc2c(c1)OCCCO2)Nc1cccc(Cl)c1Cl (stereo not drawn) | inconclusive: 44.7 µM [inhibitor, partial curve, poor fit]
CC1CCCCN1C(=O)c1ccc2c(c1)N(Cc1ccc(F)cc1)C(=O)c1ccccc1S2(=O)=O (stereo not drawn) | inconclusive: 79.4 µM [inhibitor, partial curve, poor fit]
COc1cc2nc(NC(=O)c3ccc(S(=O)(=O)N4CCc5ccccc54)cc3)sc2cc1OC | inconclusive: 50.1 µM [inhibitor, partial curve, poor fit]
CCOc1ccc(N2CC(C)Cn3c2nc2c3c(=O)n(Cc3c(F)cccc3Cl)c(=O)n2C)cc1 (stereo not drawn) | inconclusive: 22.4 µM [inhibitor, full curve, poor fit]
CCOC(=O)c1ccc(NC(=O)N2CC3CCCN3c3ccccc32)cc1 (stereo not drawn) | inconclusive: 28.2 µM [inhibitor, partial curve, poor fit]
